T1: UNK ZnF1-3 (human, UniProt Q9C0B0 31-174)
T1 sequence: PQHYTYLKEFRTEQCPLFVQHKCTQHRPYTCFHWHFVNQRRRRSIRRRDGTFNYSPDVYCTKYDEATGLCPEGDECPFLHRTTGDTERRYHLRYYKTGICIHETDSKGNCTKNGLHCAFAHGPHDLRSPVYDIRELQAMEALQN

B1: chr3:104804989:104804990:-_ENSMUSG00000062127_ENSMUST00000098763|mus_hu|motif|central (ssRNA)
RNA: GGGAGUUCUACAGUCCGACGAUCACACAUCAUUACAAUCUGUUGGCCAGUAACAGCUUUUGCAACAUGGGUUAAUACGGAAAUUGUGAAUCAUGGAACUUUUACUUAGCACACACACACACAAUCUACAGCAAACUUAAAUACCAACAGAGGAUUGAGCAUCA
B2: 37168511_37169713_2590_CDS_ENSG00000170471_ENST00000397040|human|control|control (ssRNA)
RNA: GGGAGUUCUACAGUCCGACGAUCCACAAUCUCCAGUACUUCCUUAAGGCAGUCCUUUUCAUCAAGCAUAUCAGGGUGCUCUGUCAGCCAGACACAGAGACACUGAAAAGCUGCCACUAUCAUGGAGUGCAGAUCCCUGGAGUGCAACAGAGGAUUGAGCAUCA
B3: chr7:112959530:112959531:-_ENSMUSG00000030879_ENSMUST00000124482|mus_hu|FALSE|FALSE (ssRNA)
RNA: GGGAGUUCUACAGUCCGACGAUCCUGCAGCGACCGACAGCCGCAUGUUUCCAACUUCUGCCCGCCCCUUGGAGGCCGGAACUGGAAACUGGAAGGUAGAGCCGGUGGCGGCAAUUUCAGGGAACGCAUGCGCCUUAGCUCGGACAACAGAGGAUUGAGCAUCA
B4: chr22:32879901:32879902:+_ENSG00000100225_ENST00000397426|hu_mus|hu_hu_hu_mus_False|8_108 (ssRNA)
RNA: GGGAGUUCUACAGUCCGACGAUCCUCUGCCAUAUGCAUGGCAUCCUGAAUUGACUCAGCUUCAACAUUUUGACUAGGCCCUUCCAUACUGUCAUCAGUCCAGGCAUCAAAUGGGGUGGCCUGUCCUUGGAAUGAAUCAGUCCCCAACAGAGGAUUGAGCAUCA
B5: chr10:102306293:102306294:+_ENSG00000166135_ENST00000299163|hu_hu|FALSE|FALSE (ssRNA)
RNA: GGGAGUUCUACAGUCCGACGAUCAGCCCCCUUAUACCAGAAGUUCACAGUGAUGGUAAUCCCCCCAUUUAGUAAUGACUCUAUGUGAUGCCACCAGUACAUUGGGAUGUAAAGAACAUCACCAGGGCCAACCACUGUUUCGUACAACAGAGGAUUGAGCAUCA
B6: chr11:106117246:106117247:-_ENSMUSG00000020706_ENSMUST00000021048|mus_mus|FALSE|FALSE (ssRNA)
RNA: GGGAGUUCUACAGUCCGACGAUCGCAGGCCUUACAAGUUAAAAGUAGAGGCUAGGAAGUAGAGUGCAAUAACUCGUAUCCUAAACGCUAGGAAGCAUCAACCAGAAGUUCUAUAUCUCUUCACAAAACUAGUGACCUCCAGUACAACAGAGGAUUGAGCAUCA
B7: chr1:60041781:60041782:+_ENSMUSG00000041040_ENSMUST00000036540|mus_hu|mus_mus_mus_hu_False|18_48 (ssRNA)
RNA: GGGAGUUCUACAGUCCGACGAUCAAGUUUACAAUAGUAAAGUAAAUGCAGUAGUGGCAAAUUUUCUUUUAUUUUCCUUCACAAAAGAAAACCUCAGUAACCCAGUCCUAGUCUUGGCAGAGAAAGCAGCUAUAAAUUCUGACUCAACAGAGGAUUGAGCAUCA
B8: chrX:70776531:70776532:+_ENSG00000147162_ENST00000373719|perfect_dup|FALSE|FALSE (ssRNA)
RNA: GGGAGUUCUACAGUCCGACGAUCCUGCUGCAGUACACUUGCUAAAUUUGAAUGGGCAGCAGCAAACUCUGGGAAGACUUCUAAUGCUUUACGAUACAAGCGAACUGCCUCUUCAAUGUUUCCCUGUUCUCGUUUGAUAUUGGCCAACAGAGGAUUGAGCAUCA
B9: chr8:74858975:74858976:-_ENSG00000154582_ENST00000284811|hu_mus|hu_hu_hu_mus_True|38_108 (ssRNA)
RNA: GGGAGUUCUACAGUCCGACGAUCGACCUUGUACGUAAAAUACAUGCACACUUUUGAUAGCACAUGUGAGGGGAUCUCUCUAAAAUUGACCUCGUUGGUUUCGUUCUCAGCAAACUGACCUGGACCACUCAACAUAGCCUUUAUCAACAGAGGAUUGAGCAUCA
B10: chr7:107790313:107790314:-_ENSG00000091129_ENST00000351718|hu_hu|motif|central (ssRNA)
RNA: GGGAGUUCUACAGUCCGACGAUCCUCUCUACCCAUAUGUUCAUAGUAUGAGAGGGCUGACAAACAAGUGCUUAGGAUAAACAUUCGGGAGAAAUGGAAUAUUGGCAAAGAGCUUAAAAAUUAAACAAAGGAAUUCAUGGCGUUCAACAGAGGAUUGAGCAUCA
B11: chr5:37680062:37680063:+_ENSMUSG00000029121_ENSMUST00000031004|mus_hu|mus_mus_mus_hu_False|8_48 (ssRNA)
RNA: GGGAGUUCUACAGUCCGACGAUCUUUGGGUGUAGCUGGUACCUCGUACACAGGACCGUCAUACAUGCCCCUGGAAACCCCUUGCAACCCGAAAACCUUAUUCCUGAUUUUGACGCGCUGGUACAGGUGCUCUGGGAACGCCUUCAACAGAGGAUUGAGCAUCA
B12: chr12:111957846:111957847:-_ENSG00000204842_ENST00000535949|hu_mus|FALSE|FALSE (ssRNA)
RNA: GGGAGUUCUACAGUCCGACGAUCUGCUAACUGGUUUGCCCUUGCCUCCCGUUUAAGAAAUUCUUCUGAGUUGUCCCUUUCUAAAGGAACCGUAUAUGAAGAUAAACUGCUAUCAUAUGUGGACACCACACCAUAAUUCUCUUCCAACAGAGGAUUGAGCAUCA
B13: chr7:123332509:123332510:-_ENSG00000106299_ENST00000223023|hu_hu|FALSE|FALSE (ssRNA)
RNA: GGGAGUUCUACAGUCCGACGAUCAGAGCAGGACACUGGCCGACUGUUCUGCUCCACUUUUUUUAGCUGAGCACCCUCUCUAAUUUGAUCUAAAAGAGCUGCUUUGUUUCCUGCAGUAGUUGGAACCUGAUGGUCCCCAUCAGACAACAGAGGAUUGAGCAUCA
B14: chr1:1341249:1341250:-_ENSG00000242485_ENST00000344843|hu_mus|FALSE|FALSE (ssRNA)
RNA: GGGAGUUCUACAGUCCGACGAUCUUCAUAGAUGGCCAGGUCCACAAGAACUUUCCUGUUGAGCUCCACCUGGCACUUAAUUAAGUUGACAAUGAAUGCUGGGUACUUUAAGCCAUGUUCCUGGGAGGCAGCUGUAAUUCGAUUCAACAGAGGAUUGAGCAUCA

This is one part of the list.

The test deals with T1, UNK ZnF1-3. In words: nsRBNS (natural sequence RNA bind-n-seq); RBNS binding buffer (assumed for nsRBNS): 25 mM Tris pH 7.5, 150 mM KCl, 3 mM MgCl2, 0.01% Triton X-100, 500 ug/ml BSA, 20 U/ml SUPERase-In, 4 C; UNK is unkempt and MSI1 is Musashi-1; names of the RNAs are library labels; protein concentration not given here; high values mean tight binding.
As for B1, the binding signal came to 1.81 enrichment R.
B2 gave a binding signal of 1.06 enrichment R.
The figure for B3 is 0.586 enrichment R; for B4 it is 0.836 enrichment R.
In turn, B5 registered a binding signal of 1.05 enrichment R.
The molecule B6 showed a binding signal of 1.74 enrichment R.
The molecule B7 showed a binding signal of 1.05 enrichment R.
In turn, B8 registered a binding signal of 1.06 enrichment R.
As for B9, the binding signal came out at 0.706 enrichment R.
B10 came in with a binding signal of 2.15 enrichment R.
Next, B11: 0.745 enrichment R; B12: 1.13 enrichment R.
The molecule B13 returned a binding signal of 0.695 enrichment R.
Next, B14: 0.819 enrichment R.

Source of the values: PMC12136788.
